Experimental data from the supplement of paper PMC10126150.
Values marked as one replicate rest on one cluster of the flow cell; about a third of the high ones do not repeat.

Each sequence was assayed on ATP (assay: switch fluorescence ratio, 500 uM ATP over buffer (Cy3 cluster intensity, sum of 5 cycles each) (fold (ratio)); higher = stronger signal-on switching upon ATP binding; sequences stand for … in TCGTCGGCAGCGTCAGATGTGTATAAGAGACAGTTTTTTTTTTTTTTTTTTTTTTTTT…TC). Conditions: aptamer strand: ATP DNA aptamer (quencher-CACCTGGGGGAGTATTGCGGAGGAAGG + anchor), 100 nM annealed; ATP concentration: 500 uM; one replicate.
Method in brief: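 Switching-strand clusters labelled with Cy3 on a modified Illumina MiSeq flow-cell were annealed to 100 nM quencher-labelled ATP aptamer, imaged in selection buffer, and re-imaged after 15 min with 500 uM ATP at 22 °C. This was done over five cycles with NaOH stripping and re-annealing in between. The fluorescence ratio is summed target-cycle over summed buffer-cycle Cy3 intensity per cluster, averaged per switch-domain sequence, excluding clusters outside 100-1000 RFU.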
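Also: ATP exposure 15 min at 22 °C before imaging.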

Sequence | switch fluorescence ratio
TCAATCTTAA | 1.07
TCAATGCAAA | 0.996
TCAATGGAGT | 1
TCAATGTGCT | 0.986
TCAATTAGTT | 0.963
TCAATTATTC | 1.01
TCAATTTATT | 1
TCAATTTTCA | 1.01
TCACACGTAG | 1.06
TCACAGCTTT | 0.955
TCACATCATA | 1.03
TCACATTACT | 1.37
TCACCTGAGC | 1.1
TCACCTGCG | 1.09
TCACCTTCTC | 1.89
TCACGCTACG | 1.49
TCACGGAGTT | 0.987
TCACGGTGAT | 1.05
TCACGTTTCG | 1.01
TCACTAGCTT | 0.97
TCACTCTGCG | 1.15
TCACTGCGAT | 1.91
TCACTGGATC | 1.1
TCACTTTGCA | 1.08
TCAGACCGCA | 2.31
TCAGATCCAG | 0.955

Sequence | switch fluorescence ratio
TCAGATGCCT | 0.963
TCAGATGTTT | 0.973
TCAGCACTGG | 1.05
TCAGCCGTGG | 0.994
TCAGCGGGAC | 3.91
TCAGCTCGGA | 1.04
TCAGCTTATC | 1.12
TCAGCTTCTT | 0.994
TCAGGAATAT | 1
TCAGGACCAG | 1
TCAGGATGCT | 0.96
TCAGGCTCTT | 1.08
TCAGGTCAAG | 1
TCAGGTGATA | 1.32
TCAGGTTGGC | 1.15
TCAGTAAAGA | 0.927
TCAGTAATGG | 1.13
TCAGTACGAG | 1.02
TCAGTACGGC | 0.993
TCAGTAGAGT | 1.03
TCAGTAGTTA | 1.02
TCAGTCCTAG | 0.999
TCAGTCGACC | 0.921
TCAGTCGAGA | 1.02
TCAGTCTTTG | 0.996
TCAGTTATG | 0.992

Sequence | switch fluorescence ratio
TCAGTTTTAA | 0.977
TCATACATAG | 0.997
TCATACATCC | 1
TCATACGGTG | 1.04
TCATACTTGT | 1.03
TCATAGCTAG | 1.03
TCATAGGGTA | 0.989
TCATAGTAG | 0.983
TCATATCAA | 0.977
TCATATTACG | 1.05
TCATCCATAA | 1.18
TCATCCCATA | 1.72
TCATCCGCT | 1.96
TCATCGAGGC | 1.03
TCATCGGCG | 0.914
TCATCTGATG | 0.972
TCATGATTGG | 0.982
TCATGCACCG | 1.01
TCATGCGATG | 1
TCATGGAGTC | 1.07
TCATGGGGGC | 1.02
TCATGTAGTC | 0.983
TCATTCCGGC | 1.23
TCATTCTCAT | 1
TCATTGAAAT | 0.973
TCATTGCCCG | 0.925

Sequence | switch fluorescence ratio
TCATTTGAAT | 1.02
TCATTTGTAA | 0.969
TCATTTTCCA | 1.05
TCATTTTCCT | 1.06
TCATTTTGA | 0.975
TCATTTTGT | 1.02
TCCAAAAAGC | 1.02
TCCAAATTCC | 1.02
TCCAAGAGCA | 1.13
TCCAAGCAAA | 0.981
TCCAAGTCTA | 1.02
TCCACAGA | 1.05
TCCACATACC | 1.5
TCCACCCGCA | 6.69
TCCACGCCGC | 1.43
TCCACGTCAG | 0.98
TCCAGAATTG | 0.94
TCCAGACGCC | 1.65
TCCAGACGCT | 1.28
TCCAGCAAGG | 1.55
TCCAGCGCA | 2.26
TCCAGCTTCT | 1.06
TCCAGGACAG | 0.979
TCCAGGGAAC | 1.01
TCCAGGTCAT | 1.07
TCCATGAACT | 1.02

Sequence | switch fluorescence ratio
TCCATGCAGT | 1.11
TCCATGCCTA | 0.973
TCCATTGATT | 1.01
TCCATTGCGG | 2.84
TCCCAAATAC | 2
TCCCAAGACC | 1.24
TCCCAGAGGT | 1.1
TCCCAGGTCA | 1.82
TCCCAGTAG | 1.28
TCCCATTTT | 1.02
TCCCCAGGTT | 1.13
TCCCCCGGGT | 4.67
TCCCCCTGGG | 1.39
TCCCCGGATT | 1.19
TCCCCGGTTA | 1.02
TCCCCTAAAG | 0.99
TCCCGGGTTC | 1
TCCCGTTTGT | 1.01
TCCCGTTTTC | 1.14
TCCCTATGGG | 1.1
TCCCTGAAGG | 0.98
TCCCTTCGGT | 1.05
TCCCTTGAAT | 1.02
TCCCTTGGTA | 1.01
TCCCTTTGTG | 0.965
TCCCTTTTGA | 1

Sequence | switch fluorescence ratio
TCCGAAAAGT | 0.99
TCCGAGGTAA | 5.45
TCCGCATAT | 3.12
TCCGCGAGCT | 2.52
TCCGCGCATT | 1.18
TCCGCGGGCA | 1.28
TCCGCTCAAT | 4.16
TCCGCTTT | 1.99
TCCGGATAAT | 0.998
TCCGGCAGAG | 1.1
TCCGGCCCAA | 5.24
TCCGGCCTTG | 1.03
TCCGGCGGCT | 1.03
TCCGGGAGCC | 1.1
TCCGGGGAGT | 1.08
TCCGGGGCAT | 2.85
TCCGGTCGTC | 1.03
TCCGGTGAAC | 1.75
TCCGGTGGTT | 1.39
TCCGTATCGG | 0.955
TCCGTGATTG | 1.27
TCCGTTGGCG | 0.965
TCCGTTGTAA | 2.03
TCCTAAGCAC | 2.81
TCCTAGCTGG | 0.964
TCCTAGTCTT | 0.992

Sequence | switch fluorescence ratio
TCCTATCTAG | 0.986
TCCTATTTTT | 1.03
TCCTCCTATT | 1.44
TCCTCGGA | 1.04
TCCTCGTAGT | 1.5
TCCTCTGCCT | 4.75
TCCTCTTTTT | 1
TCCTGAAAAA | 1.04
TCCTGGCTAC | 4.97
TCCTGGTCGC | 0.997
TCCTTATAAA | 0.996
TCCTTCACGC | 2.08
TCCTTCCAT | 1.01
TCCTTCTGGT | 1.03
TCCTTTGGGT | 1.06
TCCTTTTGGT | 0.995
TCGAAAGGTA | 1.03
TCGAAAGTGG | 0.992
TCGAAATCAG | 0.972
TCGAAGAACG | 1.37
TCGAATGAGC | 0.946
TCGACAATCG | 1.05
TCGACCCTAT | 1.09
TCGACGAAGT | 0.985
TCGAGAGG | 1.05
TCGAGCTATG | 1.03

Sequence | switch fluorescence ratio
TCGAGGCCAA | 2.16
TCGAGGGTGT | 1.07
TCGAGGTATT | 0.987
TCGAGGTGTA | 0.998
TCGAGGTTGG | 0.973
TCGAGTCCAG | 1.13
TCGAGTGTTT | 0.952
TCGATACACG | 1.05
TCGATAGTCG | 1.03
TCGATCACTG | 1.02
TCGATCGCTG | 0.983
TCGATTTAGA | 1.01
TCGCACATGA | 1.64
TCGCACCCTT | 1.15
TCGCAGCCAA | 5.47
TCGCATCCGG | 1.08
TCGCCAGCGG | 1.03
TCGCCCGGA | 1
TCGCCGTACT | 0.962
